The RNAGym collection of RNA variant scans (doi:10.7554/elife.90254)
The source gives no read counts; variants with many changes may rest on few reads.

B1: LINE1-mini (parent)
chain: GGCAGAGCUCAACACAGCGUGGCAAAGUGGCUGUGGCUAGACUGCC

Variants of: B1
Test: self-cleavage, relative activity (ratio to wild type); higher = more cleavage; in vitro, sequencing; the parent is a self-cleaving ribozyme

Row | Variant | self-cleavage
1 | G29C U34A U43G C46U | 0.01
2 | A11G A14G A24U A26U U34A | 0.03
3 | G22C A39C U43C | 0.02
4 | U9A C10G A25C U34G A39U | 0.01
5 | A12C A14U G22A | 0.03
6 | G2C C8A G21C | 0.16
7 | G29C G30A A39G | 0.02
8 | G2U C8G G17A | 0.01
9 | G5U A6U C15A G35C | 0.02
10 | G22U A25U C31U | 0.5
11 | G21U U32G U34G | 0.02
12 | G7A U20C G22C | 0.09
13 | A12C A16C G27C C45U | 0.01
14 | G7U A12C C18G C31G | 0
15 | G2U C3U C10A U20C | 0.06
16 | A12G G33U C37U | 0.14
17 | G2A C23A C45U | 3
18 | G27C C31G G36A C46A | 0.01
19 | G2A G7C A39C | 0.54
20 | G2U G7U A12C C23U C42A | 0.01
21 | C8U C10U A16G U28G C45G | 0
22 | C3A G19A C23A C37U | 0.08
23 | A4C G7A C10A G17C U20A C23U C42A C46G | 0.01
24 | A14C G19U G22C | 0.06

Row | Variant | self-cleavage
25 | G21A C31G U43G | 0
26 | G1A G2U C13G U20G G27U U28A | 0.12
27 | G2U C23A A25U G30C | 0.14
28 | C3A U28G C31A U32G C46U | 0.06
29 | A16G U43C G44U | 0.02
30 | C8A U32A G36A C42U | 0.05
31 | C8A A11G G33U G40U A41C | 0.02
32 | C3U U9G C13A C15U | 0.03
33 | G7U C8A C45A C46U | 0.47
34 | A14G G17U A24G | 0
35 | C3G C31U U43A G44U | 0.04
36 | G2A C18G A41G | 0.29
37 | G19U G29U C31G | 0.07
38 | G22U C31G G33U | 0.07
39 | G2U U32C G35A G36A | 0.04
40 | C13U A14G G22U | 0.26
41 | G35C U38C G44U | 0.09
42 | U9A G21U A24C G44C | 0.12
43 | G7A C13U A39C C46A | 0.41
44 | G35C G36U C46A | 0.04
45 | U9A A12U G21U G35C C45U | 0.02
46 | C3U G27U C31U G33A G40A | 0.08
47 | G2A A4G G7C C15U G30U | 0.19
48 | C8G C23U U32A G44U | 0.07

Row | Variant | self-cleavage
49 | G5C G30A C42A | 0.02
50 | C13U U20G A26C G30A | 0.06
51 | A4U A24C G33U | 0.19
52 | A12G G27U U28C C31U C42U | 0.11
53 | G1C G5U A6G C10G C18U G27A | 0.02
54 | G1A G30A U38G C42A | 0
55 | C3U C8G A14C A25G A41U | 0.01
56 | G7U G22C C46G | 0.08
57 | G2A C10U G21C G22U | 0.08
58 | C10A A26C U38C | 0.13
59 | C15U G21C G29C | 0.15
60 | G19U U43A G44A | 0.01
61 | U32C G35A G36C | 0.09
62 | A6G A11U C23U C31G G44A | 0
63 | G35A U43G G44C C46U | 0.19
64 | G1A G2C G30U | 0.59
65 | U28C C31A C37U | 0.04
66 | C10G G17A G27C U28G U34A G40A | 0.02
67 | G2A G5U A11U G21C G40U A41G | 0
68 | G2U C10A U34A G36U | 0.02
69 | A6G A11G A25G G36A | 0.03
70 | U9G C18A G35U C45G | 0.03
71 | C10U A12U C42U | 0.09
72 | A24C G27A C45G | 0.11

Row | Variant | self-cleavage
73 | A26C U28C G33A C42A C46A | 0.06
74 | G5U C23G A24U C42G | 0.05
75 | C10A G17U G19A | 1.34
76 | G2A C3A C13A | 2.66
77 | G2U G29U G35C G40U G44C | 0.01
78 | C10U U28A U43C | 0.02
79 | G1U A16G C23U G35U | 0.05
80 | C3A A4C U20G G21U | 0.19
81 | C8G C42A C46A | 0.22
82 | G1U G17U C46A | 0.2
83 | G7U G22A C46A | 0.1
84 | C3U A4C G7U A16U | 1.23
85 | G2A G19A A41C | 0.09
86 | C3U G29U G30C | 0.12
87 | G1A G7C G19U C31G U34G C46A | 0.13
88 | A6U A12C A24C U34G | 0.04
89 | A6C G21A A26C C46A | 0.98
90 | G7C G30C C45A | 0.09
91 | G5C A26G C31U G40U | 0.03
92 | G1U G21U G29C | 0.07
93 | G21A G29U C45U | 2.67
94 | G5C C15U C42G | 0.14
95 | A11U A14U A25U C46A | 0.03
96 | G17U G21U G29A C46A | 0.25

Row | Variant | self-cleavage
97 | A6G U32G G33U | 0.03
98 | G1C C10U C15U A25U U28C G40C | 0
99 | U20A G22A U28C C46U | 0.84
100 | C13G A26G G35U | 0.23
101 | A6C A11G G44C C45A | 0.01
102 | G17U C31U G35A C42A C46A | 0.01
103 | A16C G17C U43C | 0
104 | G5C G33C A39C U43A | 0.05
105 | C13A C18A G27C G36A | 0.05
106 | G29C G30U C42U | 0.12
107 | A6G C8A A16U G27U | 0.03
108 | A4G A14G A25C G40A C45A | 0.03
109 | C8U U20G G33U A41U | 0.04
110 | A11C U34G C45U | 0
111 | U9G G17U G27A G30C G36C U43G | 0
112 | A4C G7A A14U A41U | 0.56
113 | A16C U34C G35U C37U | 0.02
114 | A11U A14G C18U A25U C37G | 0.01
115 | G1U C10G G29C | 0.01
116 | C3U A4G A6C A11C A39C | 0.01
117 | G5C C15G U43C | 0.01
118 | A24C A26G G33C G36C C45A | 0.02
119 | A11G C15A G22C A26G | 0
120 | A16G G17U C23U G29U C46A | 0.1

Row | Variant | self-cleavage
121 | A16G U20G A39U | 0.05
122 | C8U A26C U28G G33C | 0.01
123 | G5C G7U A11U A24U G29U C45U | 0
124 | A4U C15G G21A G40A | 0.01
125 | C15G G21U U34C G35A G36C A39C G40A | 0.01
126 | G1A C13U G30U C45U | 0.09
127 | C3A A4U G21U U28A C31A A39U | 0.21
128 | U9A G19A G40A | 0.2
129 | G2C U28G A39G | 0.01
130 | G5C C8G C13A C31U G33A | 0.07
131 | C10U G17U U38C | 0.31
132 | G17U U28C G35C G40U C42A | 0.03
133 | C10G C18A G22A C23G C46U | 0.14
134 | G5C C8G A25C G29A C37A C42U | 0.03
135 | C8U A16C G17A C18U | 0.01
136 | G1A A39C C46A | 0.3
137 | G1U C3G C8A C10A | 0.04
138 | C15A C23A U32A G33A G40A | 0.06
139 | C23A C31U A41C | 0.03
140 | C3U G7C G19A | 0.07
141 | G36U G40C C45G | 0.02
142 | G22A U28C G35U | 0.08
143 | C3G C13U G29A A39G G40A A41C | 0.38
144 | A11U G21C U28C U34G C37A | 0.01

Row | Variant | self-cleavage
145 | G1C G40A U43G | 0.01
146 | G1C C13U G19C C31A | 0.01
147 | A12U A14G G17C A24U | 0.22
148 | A6U A14C C15A G22C | 0.15
149 | G27C G33A G36A C42A | 0.02
150 | G7A C13A G17A A24C U32G | 0
151 | C10G G27U U28C G40A U43G | 0
152 | C18A G21U U32G | 0
153 | A24C G30C C37G U38A | 0.04
154 | A6G C8A A14G | 0.64
155 | G1A C23G A26U C46A | 0.88
156 | C3U G36A C46A | 0.17
157 | C31G G33U U43A | 0.04
158 | G21U U32C C45U | 0.03
159 | U20A G22A G36C | 0.16
160 | A4G G7A G27A | 0.35
161 | C10U C13A G17A C18U U20A A25U G36A C37U | 0.02
162 | G2U C3A C13A C18G G27C U43G | 0.06
163 | C3A U9G C15A U32G C37G A39C G40A G44A | 0.29
164 | A11U C13U A14U U34G G36C U43C | 0.01
165 | C3G G19U G27U G30U G35C | 0.18
166 | G17U U20A U43G | 0.01
167 | G5U C10U G17A G22A G35U | 0.02
